The results in this text go back to the supplement of paper PMC4967469.

The IC50 comes from the fitted curve, where viability falls to half of the control; a fit beyond the top or the lowest dose is shown as a bound at that dose. AUC sums up the same curve from the lowest dose to the 256-fold higher top dose; values near 1 show little effect. For part of these data: The top dose, if marked as inferred, was derived from the fitted curves, not read from the paper.

What all share (experiment): Viability of human cancer cell lines after 72 h of drug (GDSC screen)
Compound in one experiment: COCC(=O)NC/C=C/c1ccc2ncnc(Nc3ccc(Oc4ccc(C)nc4)c(C)c3)c2c1 [CP724714]
Particulars: top dose 10.24 µM; top dose inferred. On the procedure: (§1)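 Human cancer cell lines in 384-well plates, medium with 10% serum, drug for 72 h over a 256-fold dose range (nine 2-fold or five 4-fold steps up to the top dose). Adherent lines were fixed and stained with the nucleic acid dye Syto60, suspension lines read with resazurin; signal relative to control wells, capped at 0 and 100%. One two-parameter sigmoid per drug and line, fitted in a mixed model over all curves with the slope shared within a line.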

Compound in a further experiment: Cc1cnc(CNC(=O)c2c(=O)c3ccc(N4CCCN(C)CC4)nc3n3c2sc2ccccc23)cn1 [CX-5461]
Particulars: top dose 10.24 µM; top dose inferred. How it is done:
as §1

Compound in another experiment: COC1=CC(c2cc3ccccc3[nH]2)=N/C1=C\c1[nH]c(C)cc1C [Obatoclax mesylate]
As to conditions: top dose 16 µM. On the procedure:
as §1

Compound in the next experiment: Cc1cccc(Nc2nc(-c3ccncc3)cs2)c1 [STF-62247]
As to conditions: top dose 10.24 µM; top dose inferred. On the procedure: as §1

For orientation: IC50 means the concentration that gives 50% inhibition. For the cell line J82 (bladder, adherent), the AUC in the experiment with CP724714 was 0.987; in the experiment with CX-5461 it was 0.986; in the experiment with Obatoclax mesylate it was 0.174; in the experiment with STF-62247, 0.985. Moreover, the IC50 was > 10.2 µM with CP724714, > 10.2 µM with CX-5461, 0.103 µM with Obatoclax mesylate and > 10.2 µM with STF-62247.

For the cell line JEG-3 (urogenital system, adherent), the AUC with CP724714 amounted to 0.985; with CX-5461 it was 0.991; in the experiment with Obatoclax mesylate it was 0.575; in the experiment with STF-62247, 0.991. In addition, the IC50 was > 10.2 µM with CP724714, > 10.2 µM in the experiment with CX-5461, 1.57 µM with Obatoclax mesylate and > 10.2 µM with STF-62247.

For JHH-1 (liver, adherent), the AUC with CP724714 worked out at 0.858; with CX-5461, 0.633; with Obatoclax mesylate, 0.232; in the experiment with STF-62247, 0.985. Further, the IC50 in the experiment with CP724714 is 9.58 µM; in the experiment with CX-5461, 1.55 µM; in the experiment with Obatoclax mesylate, 0.153 µM; with STF-62247, > 10.2 µM.

Turning to JHH-2 (liver, adherent), the AUC with CP724714 was 0.985; with CX-5461, 0.733; with Obatoclax mesylate, 0.773; in the experiment with STF-62247, 0.986. Besides, the IC50 in the experiment with CP724714 was > 10.2 µM; in the experiment with CX-5461, 3.13 µM; with Obatoclax mesylate, 6.72 µM; with STF-62247 it was > 10.2 µM.

As to JHH-4 (liver, adherent), the AUC was 0.977 with CP724714, 0.98 with CX-5461, 0.029 with Obatoclax mesylate and 0.958 with STF-62247. The IC50 is > 10.2 µM with CP724714, > 10.2 µM in the experiment with CX-5461, < 0.0625 µM with Obatoclax mesylate and > 10.2 µM in the experiment with STF-62247.

Consider JHH-6 (liver, adherent), for which the AUC with CP724714 is 0.986; with CX-5461 it was 0.981; with Obatoclax mesylate, 0.301; in the experiment with STF-62247, 0.987. Besides, the IC50 with CP724714 is > 10.2 µM; in the experiment with CX-5461 it was > 10.2 µM; in the experiment with Obatoclax mesylate, 0.273 µM; with STF-62247, > 10.2 µM.

Regarding JHH-7 (liver, adherent), the AUC stood at 0.973 with CP724714, 0.885 in the experiment with CX-5461, 0.299 with Obatoclax mesylate and 0.989 in the experiment with STF-62247. The IC50 with CP724714 is > 10.2 µM; with CX-5461, 9.96 µM; with Obatoclax mesylate it was 0.283 µM; in the experiment with STF-62247, > 10.2 µM.

As to JHU-011 (head and neck, adherent), the AUC turned out to be 0.929 in the experiment with CP724714, 0.798 with CX-5461, 0.056 in the experiment with Obatoclax mesylate and 0.979 with STF-62247. The IC50 was > 10.2 µM with CP724714, 4.78 µM in the experiment with CX-5461, < 0.0625 µM in the experiment with Obatoclax mesylate and > 10.2 µM with STF-62247.

JHU-022 (head and neck, adherent): the AUC worked out at 0.975 in the experiment with CP724714, 0.977 with CX-5461, 0.751 with Obatoclax mesylate and 0.982 with STF-62247. The IC50 with CP724714 is > 10.2 µM; in the experiment with CX-5461, > 10.2 µM; with Obatoclax mesylate, 6.56 µM; with STF-62247 it was > 10.2 µM.

Regarding JIMT-1 (breast, adherent), the AUC worked out at 0.98 with CP724714, 0.963 with CX-5461, 0.357 with Obatoclax mesylate and 0.963 with STF-62247. The IC50 with CP724714 is > 10.2 µM; with CX-5461, > 10.2 µM; in the experiment with Obatoclax mesylate, 0.388 µM; with STF-62247, > 10.2 µM.

K2 (melanoma, adherent): the AUC was 0.975 in the experiment with CP724714, 0.982 with CX-5461, 0.558 in the experiment with Obatoclax mesylate and 0.977 in the experiment with STF-62247. The 50% inhibitory concentration (IC50) with CP724714 is > 10.2 µM; with CX-5461, > 10.2 µM; with Obatoclax mesylate, 1.51 µM; with STF-62247 it was > 10.2 µM.

For KMH-2 (thyroid, adherent), the AUC turned out to be 0.987 with CP724714, 0.99 in the experiment with CX-5461, 0.025 in the experiment with Obatoclax mesylate and 0.984 in the experiment with STF-62247. For the same cell line, the IC50 is > 10.2 µM with CP724714, > 10.2 µM with CX-5461, < 0.0625 µM in the experiment with Obatoclax mesylate and > 10.2 µM with STF-62247.

With KMRC-1 (kidney, adherent), the AUC in the experiment with CP724714 turned out to be 0.987; with CX-5461 it was 0.987; with Obatoclax mesylate, 0.682; in the experiment with STF-62247, 0.986. Moreover, the IC50 with CP724714 was > 10.2 µM; in the experiment with CX-5461, > 10.2 µM; with Obatoclax mesylate it was 3.35 µM; with STF-62247 it was > 10.2 µM.

For the cell line KMRC-20 (kidney, adherent), the AUC in the experiment with CP724714 came to 0.986; in the experiment with CX-5461, 0.989; with Obatoclax mesylate, 0.625; with STF-62247, 0.98. Moreover, the 50% inhibitory concentration (IC50) in the experiment with CP724714 is > 10.2 µM; in the experiment with CX-5461 it was > 10.2 µM; with Obatoclax mesylate it was 2.22 µM; with STF-62247, > 10.2 µM.

For KON (head and neck, adherent), the AUC with CP724714 came to 0.981; with CX-5461, 0.987; with Obatoclax mesylate it was 0.043; with STF-62247 it was 0.987. The IC50 with CP724714 is > 10.2 µM; with CX-5461, > 10.2 µM; with Obatoclax mesylate it was < 0.0625 µM; with STF-62247 it was > 10.2 µM.
